Test system: FAP-B binding to fibronectin
Design: species or system human

FAP-A269-292: Synthesized peptide of amino acids 269-292 of FAP-A, a conserved fibronectin binding region (GNRQRWFVVWLGTSNDPVDKVAAK)
inhibition of FAP-B binding to fibronectin: completely blocked the binding of FAP-B to fibronectin

From patent US6638518B1 (priority 1999, dated 2003)
